Measured values reported in PMC4336329 (PLoS ONE, 2015).
The whole screen tested about 310,000 compounds, of which about 14,000 (4.5%) showed an effect of 50% or more. Effects have a minus sign here. This is one part of the list.

Each compound was assayed against human ether-à-go-go-related gene (hERG) potassium channel (human, UniProt Q12809) (assay: primary screen, population patch clamp on CHO cells stably expressing hERG).
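Also: peak tail current of the secondary pulse compared with the same well before compound.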

Chain of human ether-à-go-go-related gene (hERG) potassium channel (Q12809 whole entry, looked up): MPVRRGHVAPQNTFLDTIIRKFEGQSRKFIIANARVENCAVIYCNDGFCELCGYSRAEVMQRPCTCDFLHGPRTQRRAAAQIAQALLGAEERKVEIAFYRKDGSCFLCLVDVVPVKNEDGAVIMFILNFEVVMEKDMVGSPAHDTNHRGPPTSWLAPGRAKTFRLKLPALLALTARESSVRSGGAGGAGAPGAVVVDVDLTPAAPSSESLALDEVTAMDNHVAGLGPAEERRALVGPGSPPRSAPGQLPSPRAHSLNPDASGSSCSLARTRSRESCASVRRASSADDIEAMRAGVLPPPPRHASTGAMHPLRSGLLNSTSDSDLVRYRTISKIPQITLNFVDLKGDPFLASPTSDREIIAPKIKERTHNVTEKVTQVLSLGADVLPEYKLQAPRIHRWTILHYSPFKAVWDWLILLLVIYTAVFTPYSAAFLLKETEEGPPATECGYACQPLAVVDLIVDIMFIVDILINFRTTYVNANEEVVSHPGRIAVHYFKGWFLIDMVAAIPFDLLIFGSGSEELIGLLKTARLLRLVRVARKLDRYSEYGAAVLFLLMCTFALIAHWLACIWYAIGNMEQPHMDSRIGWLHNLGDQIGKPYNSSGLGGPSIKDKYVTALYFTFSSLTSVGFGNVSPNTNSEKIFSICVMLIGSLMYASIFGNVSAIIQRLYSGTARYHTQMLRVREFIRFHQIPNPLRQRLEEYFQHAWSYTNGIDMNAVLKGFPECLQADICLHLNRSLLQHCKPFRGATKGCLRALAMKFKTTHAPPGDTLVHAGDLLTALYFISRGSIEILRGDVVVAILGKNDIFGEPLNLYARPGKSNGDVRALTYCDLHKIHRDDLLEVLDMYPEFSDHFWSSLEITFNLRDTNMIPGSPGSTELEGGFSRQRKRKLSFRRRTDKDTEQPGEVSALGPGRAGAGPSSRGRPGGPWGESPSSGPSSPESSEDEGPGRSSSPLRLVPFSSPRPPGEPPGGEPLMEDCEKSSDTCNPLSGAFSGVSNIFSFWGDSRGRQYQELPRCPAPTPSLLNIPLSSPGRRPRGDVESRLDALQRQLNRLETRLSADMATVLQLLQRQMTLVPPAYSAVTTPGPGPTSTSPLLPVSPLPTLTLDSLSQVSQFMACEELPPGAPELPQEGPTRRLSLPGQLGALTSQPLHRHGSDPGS

Row | SMILES | hERG current change (%, negative = inhibition) at 10uM [%]
1 | Cc1ccccc1S(=O)(=O)Cc1ccc(C(=O)NC2CC2)o1 | 13.7
2 | CC(NCC(O)COc1ccc(S(=O)(=O)N2CCOCC2)cc1)c1ccccc1 (stereo not shown) | -1.23
3 | CCOC(=O)/C(N=Nc1sc(C(=O)OCC)c(C)c1C(=O)OCC)=C(\C)O | -8.97
4 | COc1cccc(NC(=S)NNC(=O)C(C)n2nc(C)c([N+](=O)[O-])c2C)c1 (stereo not shown) | 15.3
5 | COC(=O)c1oc2ccc(Cl)cc2c1NC(C)=O | 1.43
6 | CN1CCN(c2cc3c(cc2F)c(=O)c(C(=O)O)cn3CCF)CC1 | 7.88
7 | CCCN(CC(=O)Nc1ccccc1C)C(=O)c1ccc2[nH]c3c(c2c1)CC(C)CC3 (stereo not shown) | -29.3
8 | COc1ccc(-n2nc3cc(C)c(N)cc3n2)cc1Cl | 6.55
9 | CCc1nc(NCC2CCCN2CC)c2nnn(Cc3ccccc3F)c2n1 (stereo not shown) | -54.2
10 | CCn1c(SCC(=O)Nc2ccc(N3CCOCC3)cc2)nnc1-c1ccc(OC)cc1 | -14.8
11 | O=[N+]([O-])c1cccc(S(=O)(=O)NCCCn2ccnc2)c1 | -29.5
12 | Cc1oc(-c2cccc(Cl)c2)nc1CN1CCC(C(=O)N2CCN(c3ccccn3)CC2)CC1 | -68.5
13 | Cc1cc(C)cc(NC(=O)c2ccc(S(=O)(=O)NCc3cccnc3)cc2)c1 | -8.3
14 | CC(=O)Nc1cccc(NC(=O)CSc2ccc(-c3cccnc3)nn2)c1 | 7.43
15 | COC(=O)C(Cc1c[nH]c2ccccc12)NC(=O)c1ccccc1Br (stereo not shown) | 18.7
16 | COc1ccc(-c2cc(C(=O)N3CCN(C(=O)c4ccccc4F)CC3)[nH]n2)cc1 | 1.84
17 | Cc1ccc(N(Cc2ccccc2)C(=O)c2cccc(F)c2)cc1 | 13.9
18 | CC(O)C(NC(=O)OCc1ccccc1)C(=O)OCc1ccccc1 (stereo not shown) | -12.5
19 | COc1cccc(/C=C/C(=O)OCC(=O)Nc2ccc3[nH]c(=O)[nH]c3c2)c1OC | -14
20 | CCC(C)NS(=O)(=O)c1ccc(NS(C)(=O)=O)cc1 (stereo not shown) | -2.81
21 | Cc1cc2ncc(S(=O)(=O)c3ccccc3)c(N)n2n1 | 14.4
22 | O=C1N=C(N2CCN(c3cccc4ccccc34)CC2)S/C1=C/c1cccs1 | 11.9

Row | SMILES | hERG current change (%, negative = inhibition) at 10uM [%]
23 | COc1cccc2c1-c1c(C(=O)O)cccc1C2=O | 15.7
24 | CC1=CC(=C(C#N)C#N)C=C(C)N1CCN1CCNCC1 | -3.73
25 | N#Cc1ccc(C(=O)Nc2ccc(S(=O)(=O)NC3=NCCCCC3)cc2)cc1 | -1.54
26 | c1ccc2c(c1)ccc1nnc(SCc3ccc4c(c3)OCO4)n12 | -3.51
27 | CSc1nc(=O)n2cc(C)ccc2n1 | 5.4
28 | CCOC(=O)C1CCCN(C(=O)c2cc3c(-c4cccc(OC)c4)nn(C)c3s2)C1 (stereo not shown) | -60.7
29 | N#C/C(=C\c1ccccc1)C(=O)NC1CC1 | 11.3
30 | COc1ccc(CNC(=O)c2ccc3c(c2)NC(=O)C(C)S3)cc1 (stereo not shown) | 10.1
31 | CCOC(=O)c1sc2nc(CSc3ccccc3)nc(NCCN(C)C)c2c1C | -17.4
32 | COc1ccc(CCNC(=O)c2cc(S(=O)(=O)N(C)C)ccc2N2CCCC2)cc1 | 4.26
33 | COc1ccc(F)cc1CN1CCN(C(=O)CCC(=O)Nc2nnc(C3CCCCC3)s2)CC1 | -6.04
34 | Cc1sc(NC(=O)c2cc(-c3ccc(Cl)cc3)nc3ccccc23)c(C(N)=O)c1C | 5.31
35 | Cc1ccc(C)c(C(=O)N2CCC(n3nccc3NC(=O)C3CC3)CC2)c1 | -0.405
36 | CC(C)(C)c1csc(CS(=O)(=O)c2ccccn2)n1 | -6.8
37 | COc1cccc(N=C2SC(C(=O)Nc3ccc(F)cc3)CC(=O)N2C)c1 (stereo not shown) | -11
38 | O=C1CC(c2ccccc2)CC(O)=C1C=NCc1ccc(Cl)c(Cl)c1 (stereo not shown) | -3.59
39 | Cc1ccc(C(=O)Nc2ccc3c(c2)OCO3)cc1NC(=O)c1ccco1 | -20.8
40 | O=C(NC(=S)Nc1ccc(N2CCOCC2)c(Cl)c1)c1sc2ccccc2c1Cl | -1.86
41 | Cl.OC(COCC1COc2ccccc2O1)CN1CCc2ccccc2C1 (stereo not shown) | -64.9
42 | COc1cc2c(cc1OC)C(C)N(CC(=O)Nc1ccc(C)c(S(=O)(=O)N3CCOCC3)c1)CC2 (stereo not shown) | -13.2
43 | COCCn1c(SCC(=O)NNC(=O)c2ccc(OC)c(OC)c2)nc2ccccc2c1=O | -42.2
44 | Cl.OC(COc1ccc2ccccc2c1)CN1CCOCC1 (stereo not shown) | -8.29

Row | SMILES | hERG current change (%, negative = inhibition) at 10uM [%]
45 | COCc1cc(C)nc(OCC(=O)N/N=C/c2ccc(C)cc2)c1C#N | 10.9
46 | CN(Cc1ccccc1)S(=O)(=O)c1ccc(OCC(=O)N2CCC(C(N)=O)CC2)cc1 | -2.99
47 | Cc1cc(-c2c(C)[nH]n(-c3ccccc3)c2=O)n(-c2ccccc2)n1 | 2.87
48 | Cc1ccc(/C=C2\SC(=S)N(CCCC(=O)N3CCOCC3)C2=O)cc1 | -7.81
49 | COc1ccc(S(=O)(=O)CCC(=O)NCCc2cccc(C)c2)cc1 | -26
50 | CC(=O)c1cccc(NC(=S)NC(=O)c2cccc(Cl)c2)c1 | -3.58
51 | COc1ccc(-c2csc3ncn(Cc4ccccc4)c(=O)c23)cc1 | -0.922
52 | CCc1ccc(N2C(=O)NC(=O)C(Cc3ccc(OC)cc3OC)C2=O)cc1 (stereo not shown) | 22
53 | Cc1ccc(C)n1-c1sc2c(c1C(=O)O)CCCC2 | 18.7
54 | O=C(NCc1ccc(Cl)cc1)C1CCN(c2nnc(N3CCCC3=O)s2)CC1 | 5.6
55 | COc1cc(CN2CCCC(CO)(Cc3ccccc3C)C2)cc2c1OCO2 (stereo not shown) | -27.9
56 | COC(=O)c1c(C)nc(C)c2c(=O)oc3ccccc3c12 | -4.32
57 | CCN(CC)S(=O)(=O)c1ccc(N2CCOCC2)c(NC(=O)C23CC4CC(CC(Cl)(C4)C2)C3)c1 | -1.94
58 | CCC1=C(OC(=O)N(CC)CC)N2C(=O)OC(=NCC3CC3)[C@]2(Cc2ccccc2)[C@H]2C1=CC[C@H]1C(=O)NC(=O)[C@H]12 | 8.57
59 | COC(OC)C(C)NC(=O)NC(=O)c1ccccc1Cl (stereo not shown) | 8.81
60 | CCc1cc(C(=O)N2CCN(c3ccccc3OC)CC2)sc1C | -15
61 | COc1cc(C(Nc2ccccn2)c2ccc3ccc(C)nc3c2O)cc(OC)c1O (stereo not shown) | 4.64
62 | COc1ccc(-n2c(O)c(/C=N/n3cnnc3)c3ccccc3c2=O)cc1 | -1.22
63 | COc1ccc(/C=N/NC(=O)c2ccccc2[N+](=O)[O-])cc1CN1CCc2cc(OC)c(OC)cc2C1C (stereo not shown) | -63.9
64 | COc1ccccc1C(C)NC(=O)CCOc1cccc(C)c1 (stereo not shown) | 5.46
65 | COc1ccc(C(CNC(=O)Cc2ccc(Cl)c(Cl)c2)N2CCCCC2)cc1 (stereo not shown) | -36.5
66 | CCN1C(=O)/C(=C2\C=Cc3ccccc3N2CC)SC1=S | 21.9

Row | SMILES | hERG current change (%, negative = inhibition) at 10uM [%]
67 | CCCCOC(=O)Nc1ccc(OC)cc1S(=O)(=O)N1CCOCC1 | -17.5
68 | C/C(N)=C(/C#N)C(=O)CN1C(=O)NC(Cc2c[nH]c3ccccc23)C1=O (stereo not shown) | 11.3
69 | O=C(NNS(=O)(=O)c1ccccc1)c1ccc(O)cc1 | 11.4
70 | COc1ccc(-n2c(=O)cc(N3CCN(Cc4ccccc4)CC3)[nH]c2=O)cc1 | 9.28
71 | CCCCNC(=O)CSc1nc2ccc(NC(=O)CSc3nnc(N)s3)cc2s1 | 14.9
72 | CC1=CC(=O)N(c2cccc(C(F)(F)F)c2)C1c1ccc(Cl)cc1 (stereo not shown) | -5.25
73 | COC(=O)c1ccc(Oc2coc3cc(OCc4cnn(-c5ccccc5)c4)ccc3c2=O)cc1 | 7.07
74 | COc1ccc(CSc2nnc(-c3ccncc3)n2N)cc1 | 10.6
75 | COc1ccc(NC(=O)/C(=C\c2cc(OC)c(OC)cc2[N+](=O)[O-])NC(=O)c2ccccc2)cc1 | -18.4
76 | CC(C)[C@@H](CSc1ccccc1)N1CCN(Cc2ccccc2)CCC1=O | -63.4
77 | CCOc1ccc(NC(=O)CC(NCc2ccccn2)C(=O)O)cc1 (stereo not shown) | 29.3
78 | COc1cc2cc(Oc3ccc4ccc(=O)oc4c3)c(=O)oc2cc1OC(=O)C=C(C)C | -0.475
79 | Cn1c(=O)c(=O)n(C)c2cc(S(=O)(=O)N3CCCC3C(=O)Nc3ccc(F)cc3)ccc21 (stereo not shown) | -11.8
80 | O=C(Nc1ccc(C(=O)N2CCN(c3ccccn3)CC2)cc1)c1ccc(Br)o1 | -66.7
81 | CCc1ccc(NC(=O)CSc2nc3ccccc3nc2N2CCCC2)cc1 | 20.3
82 | Cc1ccccc1C(=O)c1cccn1CC(=O)NCCC1=CCCCC1 | 20.5
83 | ClC(Cl)c1nnc(-c2ccccc2)c(-c2c[nH]c3ccccc23)n1 | 7.76
84 | COc1ccc(/C=C(\C#N)c2cc(OC)c(OC)cc2[N+](=O)[O-])cc1 | 17.1
85 | O=C1CC(NNC(=O)c2ccc(Br)cc2)C(=O)N1 (stereo not shown) | 12.6
